Results reported in PMC12136788.
Some of the results follow.

T1: UNK ZnF1-3 (human, UniProt Q9C0B0 31-174)
T1 sequence: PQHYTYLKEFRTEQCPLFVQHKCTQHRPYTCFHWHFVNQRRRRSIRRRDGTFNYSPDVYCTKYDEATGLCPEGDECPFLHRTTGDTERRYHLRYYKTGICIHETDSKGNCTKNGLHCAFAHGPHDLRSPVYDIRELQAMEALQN

B1: chr7:90019092:90019093:+_ENSMUSG00000057706_ENSMUST00000082237|mus_mus|FALSE|FALSE (ssRNA)
RNA: GGGAGUUCUACAGUCCGACGAUCGAAACACACAAAACAGUCCACACAUCCCAUAGCACAAUUAUUAAUCAUCUUCAUAAUUACUGUUCAUUUUUCUACUUCAAGAAAAUGGAAAACUUGUGGGGUUUUCUUUUGGAAGCUUCCCAACAGAGGAUUGAGCAUCA
B2: chr8:24034084:24034085:+_ENSMUSG00000031540_ENSMUST00000044331|mus_hu|FALSE|FALSE (ssRNA)
RNA: GGGAGUUCUACAGUCCGACGAUCAUUCCCAUCAACCUCAAAGACAGAAAUAUUAUUCUUUCUGUAAAUCUCAUUGGCAGGAGGAUGGAACCAACCACAUUUCUUCAUGUGCUGCUGCAGAAUAGUUCUACUUUUCAUAUAUUUCAACAGAGGAUUGAGCAUCA
B3: chr3:10015032:10015033:+_ENSMUSG00000027533_ENSMUST00000029046|mus_mus|mus_mus_mus_hu_True|48_58 (ssRNA)
RNA: GGGAGUUCUACAGUCCGACGAUCGUUUUUACCAUCACAAGUGAUGAUACAAUCUGGCUUGGCCAUUGCGCCCAUUUUCCUAAGAGCCAGUCCUACUCCUAGCUCCUUCAUGUAUUCAUCAAAGCCUUUGCUGUCCACCAGGCGCAACAGAGGAUUGAGCAUCA
B4: chr7:148679106:148679107:+_ENSMUSG00000025511_ENSMUST00000117634|mus_hu|FALSE|FALSE (ssRNA)
RNA: GGGAGUUCUACAGUCCGACGAUCACCAGGACCAGUGGGGCCACCUCCAGGAUGCCAAGACCCGGCUCCUCCAGCGCCAACCUGUUUUCCAGGAGGCUGGGGGCCACAGGCUGGCUCCCGUGUGAACACUGCUUUGGAGAAUACCAACAGAGGAUUGAGCAUCA
B5: chr7:5008886:5008887:+_ENSMUSG00000035228_ENSMUST00000045543|mus_mus|motif|central (ssRNA)
RNA: GGGAGUUCUACAGUCCGACGAUCCCCUUCAUCAUGGCCCAUCUCCGAACCCAAUGCCAUAAAUGGAGAAACAACCACCCCGGACUUCCAUUCUUGGGGUAGGGGGUCCAUCCUGCAAGCGUUCCCCUGUCCCAGCCGCCCAUUCAACAGAGGAUUGAGCAUCA
B6: chr4:56736951:56736952:+_ENSG00000090989_ENST00000381295|hu_hu|FALSE|FALSE (ssRNA)
RNA: GGGAGUUCUACAGUCCGACGAUCGUUGCUUUCAGAGAUCUGAUCCAUUUGUUCUUUUACACUUUGGAGCAUUUCCUCAUAACUGCUCAGUUUCAAUUCAAUCUGAUCUACCUCCUUUAGAGCCUCAUCUAGCAAUUUCAUCAGCAACAGAGGAUUGAGCAUCA
B7: chr15:83907949:83907950:-_ENSMUSG00000018865_ENSMUST00000082365|mus_mus|FALSE|FALSE (ssRNA)
RNA: GGGAGUUCUACAGUCCGACGAUCCUGGUAUUAUAGAUAAAAGUCAAACGUGAGGUCACACUUCCCCAUCUUCUGUUUGUACACUAGAUCAAACUUCUCGUUCAUGGAGACGGUGAAGAUGUCCUUCCACAGCCCAACUCUUCCCAACAGAGGAUUGAGCAUCA
B8: chr12:48362563:48362564:+_ENSG00000134291_ENST00000256686|hu_hu|hu_hu_hu_mus_False|8_98 (ssRNA)
RNA: GGGAGUUCUACAGUCCGACGAUCUCCGUCAAGCCCUUCAAGCCCCACUUGCGGGGGAAACUGUAAUCACUUUGUAUGGGGAAGGAAAAGAAACGCCAAAAACUUUCCAAAAAGCGGGGGUGGGGUGUCCCAGGCCUGGGAGGUCAACAGAGGAUUGAGCAUCA
B9: 62445508_62445848_479_CDS_ENSG00000162191_ENST00000301935|human|control|control (ssRNA)
RNA: GGGAGUUCUACAGUCCGACGAUCGCGCUGCCGUUCCCGUUCCAAUGCCUCCCGUUCCUCUCUUUCUUCACGCUCCCGCUGCUUCUGGGCCACCAGCUCCAACAUCCUCUUAGUUUGUUCCUGUCUUUCCUCUUCACUCAAAGCCAACAGAGGAUUGAGCAUCA
B10: 5832715_5832835_342_3pUTR_ENSG00000099219_ENST00000339450|human|control|control (ssRNA)
RNA: GGGAGUUCUACAGUCCGACGAUCGCGGUGUCCAGCGGCCCCGCGUAGCACGAGCUGCUGCAGCGAGAGCUGCACCAGCGUCCGCAGCGCGAUCAGGUAGAGCGCGAGCCCCAGCGCGGCGCGCACCUCAGACAGCCCGGUCCCCAACAGAGGAUUGAGCAUCA
B11: chr17:62498654:62498655:-_ENSG00000108654_ENST00000581693|hu_hu|FALSE|FALSE (ssRNA)
RNA: GGGAGUUCUACAGUCCGACGAUCUUGGUUUCCACAAAAACAAUGGUUUUAUUCUCCUUCUCACUCAUGAUCUCUUCCAUUAGACGAAUAAGUUUUUCAUCCUUUUCUACGUCAUGACACACAUCCACAAUCUGAAGAAUGUUGCAACAGAGGAUUGAGCAUCA
B12: chr5:138118867:138118868:+_ENSG00000044115_ENST00000302763|hu_hu|motif|central (ssRNA)
RNA: GGGAGUUCUACAGUCCGACGAUCAGCCAAAACAUGGGCCUUCUUAGAACGACCUCUCUUCUUAUUAGAGGGCCCUUUACGGUUGGUGUUUACAAGGGUUGUAACCUGUGUAACAAGAGGCUCCAACAGUCUCUCAACUGCCAGCAACAGAGGAUUGAGCAUCA
B13: chrX:102931482:102931483:-_ENSG00000123562_ENST00000441076|hu_mus|FALSE|FALSE (ssRNA)
RNA: GGGAGUUCUACAGUCCGACGAUCAAUGGCAUCGACAUUCUUUUUAGCAGGGAGCUGGAACAACUGCUUCUGCCUCGUAACCAAGUCCCAGUCCUCCACCAGCCACGGUUUUAAUUCUUCAGGGAUCUUCACCUUCACCUCCAUCAACAGAGGAUUGAGCAUCA
B14: chr16:47694578:47694579:+_ENSG00000102893_ENST00000566044|hu_mus|FALSE|FALSE (ssRNA)
RNA: GGGAGUUCUACAGUCCGACGAUCCUCAGGAGCAUCUGCGGUACUGCUCUGCCGUUUGACUUUUGAAUGCUUAGGAAAUUCUAGUUCUUCAAAGCUCUUAAAUUCUGGAAGCUUUUCUGUGUCACUAAUUCGUAGAAAGUCAAGCAACAGAGGAUUGAGCAUCA
B15: chr1:220312391:220312392:+_ENSG00000067704_ENST00000302637|hu_hu|FALSE|FALSE (ssRNA)
RNA: GGGAGUUCUACAGUCCGACGAUCAUCUGUUUCUGGGUUGAAAUCAGCCACAUUUCCCAAAAGAAAGCGAAGUGUAUUCCUAAGCUUGCUAAUAUCAUCUCUGGCAGCAUUGAGCACGGAUGGGCCAAUUGCAACUUCGGUGAACAACAGAGGAUUGAGCAUCA
B16: chr7:140404665:140404666:+_ENSG00000090266_ENST00000247866|hu_hu|hu_hu_hu_mus_False|38_108 (ssRNA)
RNA: GGGAGUUCUACAGUCCGACGAUCUGCGUACAGAGUGCCAGAGAGUUUACAGUGUCAGUCCUCGUCAUCAGGAGGGAUUCCCAGUUCUUCAUCUGUCCACUGGGAAGGAUCUGGAUAUGAAAAGUGACCCAGCACAGCAUCCGACAACAGAGGAUUGAGCAUCA
B17: chr14:66974463:66974464:+_ENSMUSG00000022044_ENSMUST00000074523|mus_hu|mus_mus_mus_hu_False|18_68 (ssRNA)
RNA: GGGAGUUCUACAGUCCGACGAUCUUGUAGGACGACUUAUUCAGGGGAUCGGCCAGGAAGCAGGAGCAGAACAGAGACACCAGCGGGAGCUCCUUCAUCUUCUCUUUGUAGGCAGCAAGAGUCAUGUUUCUGGGAUCUGGUGGCCAACAGAGGAUUGAGCAUCA
B18: chr10:70718461:70718462:-_ENSMUSG00000019927_ENSMUST00000020085|mus_mus|motif|central (ssRNA)
RNA: GGGAGUUCUACAGUCCGACGAUCGUAAAAACCAAAGGGCUCGUGGAACGAAGGACACGGCAAACGGCGCCCGGCUUAAUGCGGACGCUGGAAAAGACAUAGAUUUUACAGUACUCUGGCGUAAGUGAAAGUGUUUGAAACUUUCAACAGAGGAUUGAGCAUCA
B19: 63353915_63354035_4938_CDS_ENSMUSG00000027520_ENSMUST00000029025|mouse|control|control (ssRNA)
RNA: GGGAGUUCUACAGUCCGACGAUCCUGUUGUAACUGGCAGGUAGUGGGCUGAUCAGAAGGAUCAACAUUGAAAUUGAGUUCAUGACCACAAGAUGGACAAGUAGAAUCGCCUAGGAUAAUAUAGUCAUUUUUCCUGUUUAUUAUCAACAGAGGAUUGAGCAUCA
B20: 89800263_89805006_4233_CDS_ENSMUSG00000002489_ENSMUST00000163370|mouse|control|control (ssRNA)
RNA: GGGAGUUCUACAGUCCGACGAUCCCAGAUGACGCUGGUGUGCAAGAGCAGGUCACCCAUGCUCAGAUCUGCAACCUCUUUCUUCUCUCCCGUCUGCUCAGCAAUCAGCUGGUCAAACACAGCACCAAACUCUUCGUGGAUCUUCAACAGAGGAUUGAGCAUCA
B21: chr10:120833061:120833062:-_ENSG00000107581_ENST00000369144|perfect_dup|motif|central (ssRNA)
RNA: GGGAGUUCUACAGUCCGACGAUCUUGGGACUCUUCUUUAGCAGCUUCUGUUUUUUCCUCUGCUAAUUUCAAAUAUGCCCGGACAACAUCUUCUAAAGAUUUAAUGUUUACCUGUUGGCAUAUGUUCUUAUAUUGAUAUAACCCCAACAGAGGAUUGAGCAUCA
B22: chr2:48026839:48026840:+_ENSG00000116062_ENST00000540021|hu_hu|hu_hu_hu_mus_False|98_108 (ssRNA)
RNA: GGGAGUUCUACAGUCCGACGAUCAUAGUGUGCCACUAGAGUCCUAAAUCUGGAACAGUGGCGGUCAUCCGAAAACUGGCCGAUGAAAAACUUGCCCAGUGAAGUGUCCACAAAGCAAACACCAUACACACGAGUGUGACCAGACAACAGAGGAUUGAGCAUCA

Target: T1, UNK ZnF1-3
Assay: nsRBNS (natural sequence RNA bind-n-seq); RBNS binding buffer (assumed for nsRBNS): 25 mM Tris pH 7.5, 150 mM KCl, 3 mM MgCl2, 0.01% Triton X-100, 500 ug/ml BSA, 20 U/ml SUPERase-In, 4 C; UNK is unkempt and MSI1 is Musashi-1; names of the RNAs are library labels; protein concentration not given here; high values mean tight binding

Binder	binding signal [enrichment R]
B1	1.27
B2	1.1
B3	0.608
B4	0.866
B5	1.44
B6	0.556
B7	0.59
B8	2.29
B9	0.496
B10	0.693
B11	0.527
B12	0.85
B13	1.46
B14	0.999
B15	0.984
B16	1.45
B17	2.55
B18	0.571
B19	1.41
B20	1.2
B21	0.789
B22	1.05
